This note sets out measurements from the supplement of paper PMC7125110.

B1: glmS ribozyme (parent)
chain: AUAAAAGCGCCAGAACUACAGAAAUGUAGUUGACGAGGAGGAGGUUUAUCGAAUUUUCGGCGGAUGCCUCCAAA

± gives the standard error. This sample is rich in variants without activity.

Settings in all cases: with glucosamine-6-phosphate
Variants of B1 are the subject of series [1]. As to the kind of experiment: self-cleavage kobs at 640 uM GlcN6P; higher = faster cleavage; RNA array. In outline:
(§1)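 kobs was derived by fitting per-tile medians to one- or two-exponential decays after normalising signals to baseline and to non-cleaving reference variants. Those signals came from barcoded ribozyme variants transcribed in situ by E. coli RNA polymerase on sequenced MiSeq chips, followed through a hybridised Cy3 probe at 37 °C and imaged over ~14 h. Glucosamine-6-phosphate (40 μM to 10 mM) in HEPES/KCl/Mg(OAc)2 buffer was flowed in. Weighted Michaelis–Menten fits across concentrations then gave kcat and KM.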

The variants in series [2] derive from B1. Kind of series: self-cleavage kobs at 2500 uM GlcN6P; higher = faster cleavage; RNA array. In short, it runs like this:
as §1

Variants of B1 are the subject of series [3]. As to the kind of experiment: self-cleavage kobs at 160 uM GlcN6P; higher = faster cleavage; RNA array. In short, it runs like this: as §1
In series [4] the parent is B1. Kind of series: self-cleavage kobs at 10000 uM GlcN6P; higher = faster cleavage; RNA array. In short, it runs like this:
as §1

Regarding AUAAAAGCGCCCGAACUACAGAAAUGUAGUUGACGACGACGAGGUUUAUCGAAUUAUCGGCGGAGGCCUCCAAA [A12C G37C G40C U56A U65G], in series [1], the “self-cleavage kobs at 640 uM GlcN6P” value is less than 1e-05 s⁻¹. The “self-cleavage kobs at 2500 uM GlcN6P” value in series [2] was less than 1e-05 s⁻¹.

Regarding AUAAAAGCGCCCGAACUACAGAAAUGUAGUUGUCUAGGAGGAGGUUUAUCCAAUUUUCGGCGGAUGCCUCCAAA [A12C A33U G35U G51C], the “self-cleavage kobs at 640 uM GlcN6P” value in series [1] was less than 1e-05 s⁻¹.

AUAAAAGCGCCGGAACUACAGAAAUGUAGUUGACGAGGAGUAGGUUUCUGGAAUUUUCGGCGGAUGCCUCCAAA [A12G G41U A48C C50G]: the “self-cleavage kobs at 640 uM GlcN6P” value in series [1] was less than 1e-05 s⁻¹. In series [3], the “self-cleavage kobs at 160 uM GlcN6P” value is less than 1e-05 s⁻¹. In series [2], the “self-cleavage kobs at 2500 uM GlcN6P” value is less than 1e-05 s⁻¹.

Consider AUAAAAGCGCGAGAACUACAGAAAUGUAGAUGACGAGGAUGAGGUUUAUCGAAUUUUCGGCGGAUGCCUCCAAA [C11G U30A G40U], for which, in series [1], the “self-cleavage kobs at 640 uM GlcN6P” value is less than 1e-05 s⁻¹.

Consider AUAAAAGCGCCCGAACUACAGAAAUGUAGUUGGCGAGGAGGAGGUUUAUCGACUUUUCGGCGGAUGCUUCCAAA [A12C A33G A53C C68U], for which the “self-cleavage kobs at 640 uM GlcN6P” value in series [1] is less than 1e-05 s⁻¹. The “self-cleavage kobs at 160 uM GlcN6P” value in series [3] is less than 1e-05 s⁻¹. For the same variant, the “self-cleavage kobs at 2500 uM GlcN6P” value in series [2] is less than 1e-05 s⁻¹.

Turning to AUAAAAGCGCCAAAACUACAGAAAUGUAGUUGAAGAGGAGGAGGUUUAUCGAAUUUUCGGCGGAUGCCUCCAAA [G13A C34A], the “self-cleavage kobs at 640 uM GlcN6P” value in series [1] was less than 1e-05 s⁻¹. In addition, the “self-cleavage kobs at 160 uM GlcN6P” value in series [3] was less than 1e-05 s⁻¹. In addition, the “self-cleavage kobs at 2500 uM GlcN6P” value in series [2] was less than 1e-05 s⁻¹. Further, the “self-cleavage kobs at 10000 uM GlcN6P” value in series [4] was less than 1e-05 s⁻¹.

For the variant AUAAAAGCGCCUGAACUACAGAAAUGUAGUUGACGAGGAGGAGGUUUAUCGAAUUUUCGUCUGAUGCCUCCAAA [A12U G60U G62U], the “self-cleavage kobs at 640 uM GlcN6P” value in series [1] is less than 1e-05 s⁻¹.

As to AUAAAAGCGCCAAAACUACAGAAAUGUAGUUGUCGAGGAGGAGGUUUAUCGAAUUUUCGGCGGAUUCCUCCAAA [G13A A33U G66U], the “self-cleavage kobs at 640 uM GlcN6P” value in series [1] is less than 1e-05 s⁻¹. For the same variant, the “self-cleavage kobs at 2500 uM GlcN6P” value in series [2] was less than 1e-05 s⁻¹.

For AUAAAAGCGCCUGAACUACAGAAAUGUAGUUAACUAGGAGGAGGUUUAUCGAAUUUUCGGCGGAUGCCUCCAAA [A12U G32A G35U], in series [1], the “self-cleavage kobs at 640 uM GlcN6P” value was less than 1e-05 s⁻¹. In addition, in series [3], the “self-cleavage kobs at 160 uM GlcN6P” value is less than 1e-05 s⁻¹.

As to AUAAAAGCGCCCGCACUACAGAAAUGUAGUUGAAGAGGAGGAGGUUUAUCGAAUUUUCGGCGCAUGCCUCCAAA [A12C A14C C34A G63C], the “self-cleavage kobs at 640 uM GlcN6P” value in series [1] is less than 1e-05 s⁻¹.

Take AUAAAAGCGCCUGAACUACAGAAAUGUAGUUGACGAGGUGGAGGUUUAUCUCAAUUCCGGCCGAUGCCUCCAAA [A12U A39U G51U A52C U54A U57C G62C]: the “self-cleavage kobs at 640 uM GlcN6P” value in series [1] was less than 1e-05 s⁻¹.

With AUAAAAGCGCCUGAACUACAGAAAUGUAAUUGACGAGGAGGAGGUUUAUCGUAUUUUCGGCGGAUGCCUCCAAA [A12U G29A A52U], the “self-cleavage kobs at 640 uM GlcN6P” value in series [1] amounted to 4.42e-05 ± 1.6e-05 s⁻¹.

As for AUAAAAGCGCGAGAACUACAGAAAUGUAGUUGACGCGGAGCAGGUUUAUCGAAUUUUCGACGGAUGCCUCCAAA [C11G A36C G41C G60A], the “self-cleavage kobs at 640 uM GlcN6P” value in series [1] was less than 1e-05 s⁻¹. Also, the “self-cleavage kobs at 160 uM GlcN6P” value in series [3] is less than 1e-05 s⁻¹. The “self-cleavage kobs at 2500 uM GlcN6P” value in series [2] is less than 1e-05 s⁻¹.

In the case of AUAAAAGCGCUAGAACUACAGAAAUGUAGUUGACGAGGAGGAGGUUCAUCGAAUUUUCGGCGGAUGCCUCCAAA [C11U U47C], the “self-cleavage kobs at 640 uM GlcN6P” value in series [1] was found to be 4.05e-05 ± 1.7e-05 s⁻¹.

With AUAAAAGCGCUAGUACUACAGAAAUGUAGUUGACGAGGAGGAGGUUUAUCGAAUUUUCGGCGGAUGCCUCCAAA [C11U A14U], the “self-cleavage kobs at 640 uM GlcN6P” value in series [1] is 0.000266 ± 3.5e-05 s⁻¹. Besides, the “self-cleavage kobs at 160 uM GlcN6P” value in series [3] came out at 9.95e-05 ± 1.2e-05 s⁻¹. In series [2], the “self-cleavage kobs at 2500 uM GlcN6P” value was found to be 0.00104 ± 0.00013 s⁻¹. The “self-cleavage kobs at 10000 uM GlcN6P” value in series [4] was found to be 0.000984 ± 0.00014 s⁻¹.

As to AUAAAAGCGCCUGAACUACAGAAAUGUAGUUGACGAGGAGGAGGUUUAUAGAAUUUUCGGCGGUUGCCUCCAAA [A12U C50A A64U], the “self-cleavage kobs at 640 uM GlcN6P” value in series [1] was less than 1e-05 s⁻¹.

AUAAAAGCGCCCGAACUACAGAAAUGUAGUUGACGAGGAGGAGGUUUCUCGAUGUUUCGUCGGUUGCCUCCAAA [A12C A48C A53U U54G G60U A64U]: the “self-cleavage kobs at 640 uM GlcN6P” value in series [1] is less than 1e-05 s⁻¹.

Consider AUAAAAGCGCCUGAACUACAGAAAUGUAGUUGACGAGGAGGAGGUUUAUCGAAUUUUCGCCGGAUGCCUUCAAA [A12U G60C C70U], for which the “self-cleavage kobs at 640 uM GlcN6P” value in series [1] is less than 1e-05 s⁻¹.

Turning to AUAAAAGCGCCCGAACUACAGAAAUGUAGUUCACGAGGAGGAGGUUUAUCGAAUUUUCGCCGGAUGCCUCCAAA [A12C G32C G60C], the “self-cleavage kobs at 640 uM GlcN6P” value in series [1] is less than 1e-05 s⁻¹. The “self-cleavage kobs at 2500 uM GlcN6P” value in series [2] was less than 1e-05 s⁻¹. Also, the “self-cleavage kobs at 10000 uM GlcN6P” value in series [4] is less than 1e-05 s⁻¹.

Consider AUAAAAGCGCCGGAACUACAGAAAUGUAGUUGACGAGGAGGAGGGUUAUCGAAUUUUCGGCGGAUGCCUCCAAA [A12G U45G], for which the “self-cleavage kobs at 640 uM GlcN6P” value in series [1] amounted to 6.36e-05 ± 1.3e-05 s⁻¹. The “self-cleavage kobs at 2500 uM GlcN6P” value in series [2] was 0.000197 ± 4.2e-05 s⁻¹. Besides, the “self-cleavage kobs at 10000 uM GlcN6P” value in series [4] worked out at 0.000386 ± 3.9e-05 s⁻¹.
